The text below walks through data of the supplement of paper PMC4967469.

By IC50 is meant the dose at which the fit gives 50% viability; a limit (>, <) means that the fit lies beyond the doses tested. AUC sums up the same curve from the lowest dose to the 256-fold higher top dose; it is 1 without any effect and falls as sensitivity rises. A top dose marked as inferred was calculated from the reported fits.

Compound in this experiment: CCn1cc(-c2ccnc3[nH]c(-c4cccc(CN(C)C)c4)cc23)c(-c2ccc(NC(=O)N(C)C)cc2)n1 [GSK1070916]
The experiment in a line: Viability of human cancer cell lines after 72 h of drug (GDSC screen). Conditions: top dose inferred. The protocol:
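Human cancer cell lines in 384-well plates, medium with 10% serum, drug for 72 h over a 256-fold dose range (nine 2-fold or five 4-fold steps up to the top dose). Adherent lines were fixed and stained with the nucleic acid dye Syto60, suspension lines read with resazurin; signal relative to control wells, capped at 0 and 100%. One two-parameter sigmoid per drug and line, fitted in a mixed model over all curves with the slope shared within a line.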
“SU-DHL-5 (B-cell lymphoma, suspension, top dose 2.56 µM)”: the AUC stood at 0.032 and the IC50 is less than 10 nM.
With “SU-DHL-6 (B-cell lymphoma, suspension, top dose 2.56 µM)”, the AUC stood at 0.841 and the IC50 was 1150 nM.
On the same counts, the results for “SU-DHL-10 (B-cell lymphoma, suspension, top dose 2.56 µM)” are 0.096 and 15.7 nM.
On the same counts, the results for “SUIT-2 (pancreas, adherent, top dose 2.56 µM)” are 0.861 and 2340 nM.
In the same order, the values of “SUP-B15 (lymphoblastic leukaemia, suspension, top dose 2.56 µM)” are 0.178 and 18.1 nM.
As for “SUP-HD1 (Hodgkin lymphoma, suspension, top dose 2.56 µM)”, the AUC was 0.885 and the IC50 is greater than 2560 nM.
Consider “SUP-M2 (anaplastic large cell lymphoma, suspension, top dose 2.56 µM)”, for which the AUC amounted to 0.216 and the IC50 is 30.9 nM.
For the cell line “SUP-T1 (T-cell lymphoblastic leukaemia, suspension, top dose 2.56 µM)”, the AUC worked out at 0.685 and the IC50 was found to be 499 nM.
Turning to “SW13 (adrenal gland, adherent, top dose 2.56 µM)”, the AUC was determined as 0.988 and the IC50 is greater than 2560 nM.
Take “SW156 (kidney, adherent, top dose 2.56 µM)”: the AUC was 0.982 and the IC50 was greater than 2560 nM.
In the same order, the values of “SW620 (large intestine, adherent, top dose 2.56 µM)” are 0.856 and 1690 nM.
On the same counts, the results for “SW626 (ovary, adherent, top dose 2.56 µM)” are 0.956 and greater than 2560 nM.
In the same order, the values of “SW684 (fibrosarcoma, adherent, top dose 2.56 µM)” are 0.982 and greater than 2560 nM.
In the case of “SW756 (cervix, adherent, top dose 2.56 µM)”, the AUC came to 0.985 and the IC50 is greater than 2560 nM.
“SW780 (bladder, adherent, top dose 2.56 µM)”: the AUC worked out at 0.986 and the half-maximal inhibitory concentration (IC50) is greater than 2560 nM.
On the same counts, the results for “SW837 (large intestine, adherent, top dose 2.56 µM)” are 0.914 and greater than 2560 nM.
In the same order, the values of “SW872 (soft tissue, adherent, top dose 2.56 µM)” are 0.969 and greater than 2560 nM.
Turning to “SW900 (lung squamous cell carcinoma, adherent, top dose 2.56 µM)”, the AUC was determined as 0.975 and the IC50 is greater than 2560 nM.
In the case of “SW948 (large intestine, adherent, top dose 2.56 µM)”, the AUC was 0.806 and the half-maximal inhibitory concentration (IC50) came to 2110 nM.
In the same order, the values of “SW954 (urogenital system, adherent, top dose 2.56 µM)” are 0.237 and 27.5 nM.
In the same order, the values of “SW962 (urogenital system, adherent, top dose 2.56 µM)” are 0.969 and greater than 2560 nM.
In the same order, the values of “SW982 (soft tissue, adherent, top dose 2.56 µM)” are 0.866 and 2410 nM.
With “SW1088 (glioma, adherent, top dose 2.56 µM)”, the AUC came out at 0.972 and the IC50 is greater than 2560 nM.
Consider “SW1116 (large intestine, adherent, top dose 2.56 µM)”, for which the AUC came out at 0.981 and the IC50 is greater than 2560 nM.
As to “SW1271 (small cell lung carcinoma, adherent, top dose 2.56 µM)”, the AUC was 0.953 and the IC50 is greater than 2560 nM.
In the same order, the values of “SW1417 (large intestine, adherent, top dose 2.56 µM)” are 0.965 and greater than 2560 nM.
On the same counts, the results for “SW1463 (large intestine, adherent, top dose 2.56 µM)” are 0.965 and greater than 2560 nM.
Turning to “SW1573 (lung adenocarcinoma, adherent, top dose 2.56 µM)”, the AUC amounted to 0.964 and the IC50 is greater than 2560 nM.
As for “SW1710 (bladder, adherent, top dose 2.56 µM)”, the AUC worked out at 0.951 and the IC50 is greater than 2560 nM.
On the same counts, the results for “SW1783 (glioma, adherent, top dose 2.56 µM)” are 0.986 and greater than 2560 nM.
On the same counts, the results for “SW1990 (pancreas, adherent, top dose 2.56 µM)” are 0.983 and greater than 2560 nM.
On to “Saos-2 (osteosarcoma, adherent, top dose 2.56 µM)”, for which the AUC was 0.981 and the IC50 was greater than 2560 nM.
Regarding “SiHa (cervix, adherent, top dose 2.56 µM)”, the AUC was found to be 0.987 and the IC50 was greater than 2560 nM.
Take “T47D (breast, adherent, top dose 2.56 µM)”: the AUC turned out to be 0.934 and the concentration for half-maximal inhibition (IC50) was greater than 2560 nM.
Turning to “T84 (large intestine, adherent, top dose 2.56 µM)”, the AUC is 0.924 and the IC50 was greater than 2560 nM.
In the same order, the values of “T98G (glioma, adherent, top dose 2.56 µM)” are 0.973 and greater than 2560 nM.
As for “T-24 (bladder, adherent, top dose 2.56 µM)”, the AUC is 0.961 and the IC50 was greater than 2560 nM.
In the same order, the values of “T-T (oesophagus, adherent, top dose 2.56 µM)” are 0.987 and greater than 2560 nM.
On to “TALL-1 (T-cell lymphoblastic leukaemia, suspension, top dose 2.56 µM)”, for which the AUC worked out at 0.95 and the IC50 is greater than 2560 nM.
On the same counts, the results for “TC-71 (Ewing sarcoma, adherent, top dose 2.56 µM)” are 0.312 and 52.9 nM.
As for “TCCSUP (bladder, adherent, top dose 2.56 µM)”, the AUC stood at 0.976 and the IC50 is greater than 2560 nM.
On the same counts, the results for “TE-1 (oesophagus, adherent, top dose 2.56 µM)” are 0.963 and greater than 2560 nM.
Turning to “TE-4 (oesophagus, adherent, top dose 2.56 µM)”, the AUC stood at 0.987 and the IC50 was greater than 2560 nM.
On the same counts, the results for “TE-5 (oesophagus, adherent, top dose 2.56 µM)” are 0.97 and greater than 2560 nM.
Take “TE-6 (oesophagus, adherent, top dose 2.56 µM)”: the AUC stood at 0.985 and the IC50 was greater than 2560 nM.
In the same order, the values of “TE-8 (oesophagus, adherent, top dose 2.56 µM)” are 0.972 and greater than 2560 nM.
For the cell line “TE-9 (oesophagus, adherent, top dose 2.56 µM)”, the AUC was determined as 0.987 and the IC50 was greater than 2560 nM.
In the same order, the values of “TE-10 (oesophagus, adherent, top dose 2.56 µM)” are 0.946 and greater than 2560 nM.
On the same counts, the results for “TE-11 (oesophagus, adherent, top dose 2.56 µM)” are 0.966 and greater than 2560 nM.
On the same counts, the results for “TE-12 (oesophagus, suspension, top dose 2.56 µM)” are 0.861 and greater than 2560 nM.
Take “TE-15 (oesophagus, suspension, top dose 2.56 µM)”: the AUC was 0.88 and the IC50 is greater than 2560 nM.
In the same order, the values of “TE-441-T (rhabdomyosarcoma, adherent, top dose 2.56 µM)” are 0.899 and greater than 2560 nM.
“TGBC1TKB (biliary tract, adherent, top dose 2.56 µM)”: the AUC came out at 0.986 and the IC50 is greater than 2560 nM.
Regarding “TGBC11TKB (stomach, adherent, top dose 2.56 µM)”, the AUC turned out to be 0.992 and the half-maximal inhibitory concentration (IC50) was greater than 2560 nM.
On the same counts, the results for “TGBC24TKB (biliary tract, adherent, top dose 2.56 µM)” are 0.93 and greater than 2560 nM.
In the case of “TGW (neuroblastoma, adherent, top dose 2.56 µM)”, the AUC is 0.871 and the IC50 worked out at 1850 nM.
On the same counts, the results for “THP-1 (acute myeloid leukaemia, suspension, top dose 2.56 µM)” are 0.879 and 2180 nM.
In the same order, the values of “TK10 (kidney, adherent, top dose 2.56 µM)” are 0.931 and greater than 2560 nM.
For the cell line “TK (B-cell lymphoma, suspension, top dose 2.56 µM)”, the AUC is 0.89 and the IC50 was 2510 nM.
On the same counts, the results for “TMK-1 (stomach, adherent, top dose 2.56 µM)” are 0.986 and greater than 2560 nM.
For “TOV-21G (ovary, adherent, top dose 2.56 µM)”, the AUC amounted to 0.967 and the IC50 was greater than 2560 nM.
On the same counts, the results for “TOV-112D (ovary, adherent, top dose 2.56 µM)” are 0.796 and 1210 nM.
On the same counts, the results for “TT (thyroid, adherent, top dose 2.56 µM)” are 0.983 and greater than 2560 nM.
In the case of “TUR (B-cell lymphoma, suspension, top dose 2.56 µM)”, the AUC was determined as 0.904 and the IC50 was greater than 2560 nM.
For “TYK-nu (ovary, adherent, top dose 2.56 µM)”, the AUC stood at 0.983 and the IC50 was greater than 2560 nM.
Consider “U031 (kidney, adherent, top dose 2.56 µM)”, for which the AUC came to 0.892 and the IC50 was greater than 2560 nM.

Usually IC50 stands for the concentration that inhibits the measured activity by half.
